Laboratory results as given in PubChem BioAssay AID1240 (Sanford-Burnham Center for Chemical Genomics, 2008).
The whole screen tested about 50,000 compounds, of which about 800 (1.6%) showed an effect of 50% or more. The list shows a part of the results.

molecular target: Bcl-2-like protein 10 (Homo sapiens) (UniProt Q9HD36); assay: TR3 peptide-Bcl-B binding displacers, biochemical primary FP assay, phenotype converters (AID 1240); conditions: GST-Bcl-B / FITC-TR3 peptide fluorescence polarization; stronger effect = higher value; compound at 3.75 mg/L;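 also: 0% = Bcl-B with tracer peptide and DMSO and 100% = tracer peptide lacking Bcl-B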
Sequence of UniProt Q9HD36 (Q9HD36 whole entry, looked up): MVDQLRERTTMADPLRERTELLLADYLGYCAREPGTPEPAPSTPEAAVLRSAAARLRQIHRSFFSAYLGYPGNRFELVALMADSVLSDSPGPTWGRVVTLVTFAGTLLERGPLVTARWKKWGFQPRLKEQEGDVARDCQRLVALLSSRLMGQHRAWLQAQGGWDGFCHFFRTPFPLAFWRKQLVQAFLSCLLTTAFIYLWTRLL

SMILES | displacement [%]
Cc1cccc(OCC(=O)O/N=C(\N)Cc2ccc([N+](=O)[O-])cc2)c1 | 1.8
Cn1c(SCC(=O)Nc2cccc([N+](=O)[O-])c2)nc2ccccc21 | -1.5
O=C(NN1C(=O)C2CCCCC2C1=O)c1ccc(O)cc1 (stereo not drawn) | -3.6
C=CCNC(=S)Nc1ccccc1NC(=S)NCC=C | -6.5
O=C(COc1ccc(Cl)cc1)NCc1ccccn1 | 5.1
CCOC(=O)c1ccc(NC(=O)c2cccc([N+](=O)[O-])c2C)cc1 | 10.1
Cc1ccc(S(=O)(=O)N(Cc2ccccc2)c2ccccc2C(=O)NCC(C)C)cc1 | -0.2
Cc1nc2cc(-c3cccc(Cl)c3)[nH]n2c(=O)c1Cl | -0.7
COc1cc2cc(=O)n(Cc3ccccc3)c(C)c2cc1OC | 28.3
CC(C)(C)c1ccc(S(=O)(=O)N2CCCC2C(=O)O)cc1 (stereo not drawn) | -0.9
COc1ccc(CCNC(=O)CCc2ccccc2)cc1OC | 3.8
COc1ccc(NC(=O)c2ccc(CN3CCN(Cc4ccccc4)CC3)cc2)cc1 | -1.5
O=C1Oc2ccccc2C(=O)/C1=C/c1ccccc1O | 4.4
COC(=O)C1=C(C)N=c2s/c(=C\c3cccc([N+](=O)[O-])c3)c(=O)n2C1c1ccc(OC)cc1 (stereo not drawn) | 1.2
COc1ccc(OC)c(N(CC(=O)NCC(C)C)S(C)(=O)=O)c1 | 6.4
O=C(c1cc2ccccc2oc1=O)N1CCSC1c1ccc(Br)cc1 (stereo not drawn) | 10.5
COc1ccc(N(CC(=O)Nc2cccc(Br)c2)S(C)(=O)=O)cc1Cl | -0.1
CCOc1ccc(N2C(=O)/C(=C/c3ccc(C(C)C)cc3)C(=O)NC2=S)cc1 | -7.8
COc1ccc(C(=O)Nc2ccccc2)cc1NC(=O)c1cccc(F)c1 | 8.7
CC(SC12CC3CC(CC(C3)C1)C2)C(=O)O (stereo not drawn) | 13.9
CC1CCc2c(sc(NC(=O)c3cccnc3)c2C#N)C1 (stereo not drawn) | -3
COc1ccc(S(=O)(=O)N2CCN(S(=O)(=O)c3ccccc3)CC2)cc1 | -6.1
COC(=O)CN1C(=O)/C(=C/c2cc(OC)ccc2OC)SC1=S | -14.6

SMILES | displacement [%]
CCOc1ccc(C(=O)Nc2sc(C)c(C)c2C(N)=O)cc1 | 29.6
Cc1cc(C)cc(N2C(=O)CC(Sc3ncn[nH]3)C2=O)c1 (stereo not drawn) | -10.4
CCOn1c(=O)c(=O)n(OCc2ccccc2)c2ccccc21 | 18.9
COCCCNC(=O)COc1ccc(Br)c(C)c1 | -6.7
O=C(N/N=C\c1cccc(Cl)c1Cl)c1cnccn1 | 1.5
O=C(/C=C/c1ccco1)Nc1ccc(Cl)cc1Cl | -14.6
CCOC(=O)c1c(NC(=O)C(CC)Oc2ccccc2)sc(C(=O)N(CC)CC)c1C (stereo not drawn) | -3
CC(C)CCC1(C)NC(=S)N(c2ccc(Cl)cc2)N1 (stereo not drawn) | -11.9
CCc1ccccc1N(CC(=O)Nc1ccccc1C)S(C)(=O)=O | 2.8
CC(C)(O)C#Cc1ccc(C2C3=C(CC(C)(C)CC3=O)OC3=C2C(=O)CC(C)(C)C3)cc1 | -7.4
COc1ccc(/C=C/C(=O)Nc2ccc3nn(-c4ccc(F)cc4)nc3c2)cc1 | 11.5
Cc1ccc(S(=O)(=O)N(CC(=O)N2CCN(c3ccccc3)CC2)c2ccccc2C)cc1 | 0.1
CCOC(=O)C1=C(c2ccccc2)NC(=S)NC1c1ccccc1 (stereo not drawn) | 17.4
O=C1c2cccc([N+](=O)[O-])c2C(=O)N1CC(=O)N1c2ccccc2Sc2ccc(C(F)(F)F)cc21 | 6.3
O=C(Nc1ccc2c(c1)oc1ccccc12)c1ccc(Br)o1 | 19
CCCCOC(=O)c1cccc(NC(=S)NC(=O)c2ccccc2Cl)c1 | -2
O=C(NCCCNc1ccc(C(F)(F)F)cc1[N+](=O)[O-])c1ccc(Cl)cc1 | -8
Cc1ccc2nsnc2c1NC(=O)COc1ccc(Br)cc1 | 22.3
Cc1ccc(NC(=O)C(Cl)(Cl)C(=O)Nc2ccc(C)cc2)cc1 | 11.1
CN(C)c1cccc(C(=O)Nc2cccc(Cl)c2)c1 | 7.8
O=C(NCCC(=O)N1CCNC1=O)OCc1ccccc1 | 3.9
CCC(Oc1ccccc1)C(=O)Nc1c(C)n(C)n(-c2ccccc2)c1=O (stereo not drawn) | 0.1
COc1ccc(CN2CCN(C(=O)c3cccc(Cl)c3)CC2)cc1Br | -7.2

SMILES | displacement [%]
O=C(CCN1C(=O)/C(=C/c2ccc(F)cc2)SC1=S)Nc1cc([N+](=O)[O-])ccc1O | 25.6
CC1=C(C(=O)Nc2cc(Cl)ccc2C)C(c2ccccc2Cl)NC(=S)N1 (stereo not drawn) | 6.1
O=C(CC1Nc2ccccc2NC1=O)Nc1ccc(O)cc1 (stereo not drawn) | 12.6
CCCCOc1cccc(C(=O)Nc2cccc(-c3nc4ncccc4o3)c2)c1 | 15.2
Cc1cc(C=C2C(=O)NC(=O)NC2=O)c(C)n1-c1cccc([N+](=O)[O-])c1 | 5.2
COc1ccc(Br)cc1CN1CCN(Cc2ccc3c(c2)OCO3)CC1 | -7.3
CC1CCCCN1CC#CC(O)(c1ccccc1)c1ccccc1 (stereo not drawn) | -5.7
CC1(c2ccccc2)CC(O)CC(c2ccccc2)N1 (stereo not drawn) | 13
Cc1cc(NC(=O)c2ccc(C(C)(C)C)cc2)ccc1NC(=O)c1ccccc1 | -10.3
O=C(O)CCN1C(=O)/C(=C/c2ccccc2Cl)SC1=S | 5.7
CCCOc1ccc(/C=C/C(=O)Nc2c(C)cccc2C(C)C)cc1OC | -3.1
CCOc1cc(/C=C2/SC(=S)N(CC)C2=O)cc(Br)c1OCCOc1cccc(OC)c1 | 92.3
Cc1sc(NC(=O)c2ccc3c(c2)OCO3)c(C(N)=O)c1C | -3.3
O=C1OC(/C=C/c2ccccc2)=NC/1=C/c1ccc(-c2ccc3c(c2)C(=O)NC3=O)o1 | -8
CCOC(=O)c1sc(NC(=O)CCOc2ccccc2)c(C(=O)OCC)c1C | 2.2
COc1ccc(/C=N/Nc2nc(N3CCOCC3)nc(N3CCOCC3)n2)cc1 | 7.7
O=C1CC(c2ccccc2)Sc2nc3ccccc3n21 (stereo not drawn) | 4
CNCC(=O)C12CC3CCC(CC(C3)C1)C2 | -9.5
O=C(O)c1ccc(CNC(=S)Nc2ccccc2)cc1 | -7.9
Fc1ccc(-c2noc(-c3ccccc3Cl)n2)cc1 | -5.3
Cc1cc(C)n(-c2nc(Nc3cccc(C(F)(F)F)c3)nc(-n3nc(C)cc3C)n2)n1 | 11.5
O=C(NC(=S)Nc1ccc(I)cc1)c1ccco1 | -1.7
CCN1C(=O)/C(=C2\SC(=O)N(Cc3ccccc3)C2=O)c2ccccc21 | -10.9

SMILES | displacement [%]
COCCOC(=O)c1c(C)oc2ccc(OCC(=O)c3ccc(Br)cc3)cc12 | 11.3
Cc1cc(C)c(C(=O)Nc2ccccc2C(N)=O)c(C)c1 | 7.3
COc1ccccc1N(CC(=O)Nc1ccc(C(C)C)cc1)S(=O)(=O)c1ccccc1 | 4
CC(NC(=O)CSc1ncccn1)c1ccccc1 (stereo not drawn) | 4.5
C/C=N/Nc1nnc2c(n1)[nH]c1ccccc12 | 19
COc1nc(NC(C)(C)C)nc(OC)n1 | -9.8
CC1=N/C(=C/c2ccc(OCc3ccc(Cl)cc3)cc2)C(=O)O1 | 11.8
O=C(CCC1CCCCC1)NCCN1CCOCC1 | 0.5
C/C(CC(O)c1ccc2ccccc2n1)=N\O (stereo not drawn) | 11.1
Cc1cc(C)nc(SCC(=O)Nc2ccccc2Oc2ccccc2)n1 | 1
Cn1cc(C=C2C(=O)NC(=S)NC2=O)c2ccccc21 | 8.8
COCC(C)(C)NS(=O)(=O)c1ccccc1 | 7.1
CSc1ccc(/C=C(/NC(=O)c2ccccc2)c2nc3ccccc3[nH]2)cc1 | 4.1
O=C(Nc1ccc(Br)cc1)c1ccccc1[N+](=O)[O-] | 7.3
COc1ccc(NC(=O)c2cnccn2)c(OC)c1 | 44.1
CCOC(=O)CCCSc1nc2sc(C)c(C)c2c(=O)[nH]1 | -7.2
Cc1cccc(C(=O)Nc2nc(-c3ccc(Br)cc3)cs2)c1 | -7.4
O=C(Nc1cccc(Cl)c1)Nc1nnc(Cc2ccc(Cl)cc2Cl)s1 | 18.3
O=C(Nc1ccccc1[N+](=O)[O-])c1ccc(Br)o1 | 1.8
CCOC(=O)c1ccc(N2C(=O)C=CC2=O)cc1 | -9.6
CC1=C(C(=O)OCc2ccccc2)C(c2ccccc2Cl)CC(=O)N1 (stereo not drawn) | -8.8
CCOc1ccc(NC(=O)c2sc3ccccc3c2Cl)c([N+](=O)[O-])c1 | 6.5
N#C/C(=C(/O)C(Cl)(Cl)Cl)c1nc2ccccc2[nH]1 | -5.5

SMILES | displacement [%]
COc1ccc(/C=N/Nc2nc(-c3ccc(C)cc3)nc3ccccc23)c(OC)c1 | 17.3
CCC1(C)CC(C(CCNCc2ccc(F)cc2)c2ccc(C)cc2)CCO1 (stereo not drawn) | -6
CCOc1ccc2cc(S(=O)(=O)n3ccnc3)ccc2c1 | -1.3
O=c1oc2ccccc2cc1-c1csc(N/N=C/c2ccco2)n1 | 8.6
Cc1ccc(C(=O)/C=C/c2ccccc2[N+](=O)[O-])cc1 | 12.6
COc1ccc(-c2nn(-c3ccccc3)cc2/C=c2\sc3nc(-c4ccc(C)cc4)nn3c2=O)cc1 | 8.3
Cc1cccc(C)c1OCCCSC#N | 8.2
CS(=O)(=O)N(CC(O)Cn1c2ccccc2c2ccccc21)c1ccccc1 (stereo not drawn) | 19
O=C(Nc1ccc(S(=O)c2ccc(NC(=O)c3cccs3)cc2)cc1)c1cccs1 | 3.9
O=C(Nc1ccccc1CO)c1ccc(I)cc1 | 2.2
CN(C)C(=O)C(=O)c1c[nH]c2ccccc12 | 11.1
Cc1occc1C(=O)NNC(=O)Nc1ccc(Cl)c(Cl)c1 | 0.1
CC(C)COC1CS(=O)(=O)CC1OCC(C)C (stereo not drawn) | -2.6
COc1cc(C=Nc2cc(Cl)cc(Cl)c2)ccc1O | -10.4
O=C1c2ccccc2NC(c2ccc(Cl)cc2)N1Cc1ccccc1 (stereo not drawn) | 9.2
O=C(Nc1c[nH]c(=O)[nH]c1=O)c1cccc(N2C(=O)c3ccc([N+](=O)[O-])cc3C2=O)c1 | -10.7
O=C(O)c1ccc(S(=O)(=O)NCC2CCCO2)cc1 (stereo not drawn) | 10.6
CCCc1cc2c(-c3ccccc3)cc(=O)oc2cc1OC | 20.8
COc1ccc(N(CC(=O)Nc2ccc(C)cc2)S(C)(=O)=O)c(OC)c1 | -11
CCOC(=O)/C=C(\C)Nc1nc(S(=O)(=O)c2ccc(C)cc2)c(Cl)s1 | -12
O=C1S/C(=C\c2cccs2)C(=O)N1c1ccccc1 | 12.7
